Test results reported in PubChem BioAssay AID686979 (National Center for Advancing Translational Sciences (NCATS), 2013).
Hit rate of the full screen: of about 420,000 compounds, about 50,000 (12%) were called active. The inconclusive results got no clear call from the source; some entries with a clear call stand among them for comparison. Calls come from the whole dose curve; as a rule, active = well fitted inhibition curve with a large enough effect; inconclusive = small, poorly fitted or top-dose-only effect; inactive = flat fitted curve, though single readings scatter. Potencies of inconclusive entries are left out as doubtful fits.

Experiment: qHTS for Inhibitors of human tyrosyl-DNA phosphodiesterase 1 (TDP1): qHTS in cells in presence of CPT; note: nearly all actives have a fitted effect of over 55% in size
Conditions: chicken DT40 Tdp1-/-;hTDP1 cells + 20 nM CPT, ATP luminescence, 48 h; activity change, negative = growth inhibition: at 46.2 µM (top of the series) unless noted
Method in brief: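 Chicken DT40 Tdp1-/- cells complemented with human TDP1, 400 cells/well, exposed to compounds plus 20 nM camptothecin for at least 48 h at 37 C; viability read as ATP content by CellTiter-Glo luminescence.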
% is set by controls: 0 for no effect and ±100 for the full control effect; potency is the fitted concentration of half-maximal effect; tags give direction and shape of the fitted curve.

SMILES	Potency	activity change, negative = growth inhibition
Cc1cc(NCCCn2ccnc2)n2ncc(-c3ccccc3)c2n1	inconclusive [inhibitor, single point]	–
CC(C)c1cc(N2CCC(=O)NC2=O)cc(C(=O)O)c1O	–	inactive: -9.05%
Cc1ccc(OC(C)C(=O)N2CCCc3ccccc32)cc1 (stereo not given)	inconclusive [inhibitor, partial curve]	–
CC[C@@]1(C(=O)OC)N[C@H](CN(C)S(=O)(=O)c2ccc(-c3ccccc3)cc2)[C@@H]2C(=O)N(C)C(=O)[C@@H]21	inconclusive [inhibitor, single point]	–
N#Cc1nc(COc2ccc(Cl)cc2)oc1N1CCCC1	–	inactive: -22%
Cc1cccc(-n2c(SCc3ccc(C#N)cc3)nnc2-c2c[nH]c3ccccc23)c1	inconclusive [inhibitor, single point]	–
Cc1nn(C(C)C(=O)c2cccc(Cl)c2)c(C)c1[N+](=O)[O-] (stereo not given)	–	inactive: 12.5%
Nc1ccc(/C=C/c2nccc3ccccc23)cc1	inconclusive [inhibitor, single point]	–
Cc1cccc(N(Cc2ccccc2)C(=O)c2ccc(F)c(S(=O)(=O)N3CCOCC3)c2)c1	inconclusive [inhibitor, single point]	–
CCOCCCNC(=O)c1cc(=O)n(Cc2cccc(C)c2)c2ccccc12	inconclusive [inhibitor, partial curve]	–
COc1ccccc1CN1CCC(CNC(=O)c2cnn(-c3ccccc3Cl)c2C2CCN(C(=O)OC(C)(C)C)CC2)CC1	active: 8.2 µM	–
CCc1ccccc1NC(=O)c1cn(C)c(=O)c2ccccc12	–	inactive: -18.8%
Cc1ccc2nc(Nc3ccc(C)c(Cl)c3)c3nncn3c2c1	inconclusive [inhibitor, single point]	–
COc1ccc(CN2CCNC(=O)C2CC(=O)N(C)Cc2ccon2)c(OC)c1 (stereo not given)	–	inactive: 9.22%
CC(C)c1nc2c(s1)CCc1onc(-c3cccc([N+](=O)[O-])c3)c1-2	inconclusive [inhibitor, partial curve, poor fit]	–
Cc1ccc(CNC(=O)CCn2cc(-c3ccc(C)cc3)nc2-c2ccncc2)cc1	inconclusive [inhibitor, single point]	–
Cn1c(SCC(=O)N2CCCC2)nc2ccccc2c1=O	inconclusive [inhibitor, single point]	–
CCn1c(COc2ccc(Cl)cc2Cl)nc2ccccc21	inconclusive [inhibitor, single point]	–
O=C(CN1CCNCC1)NCCSc1ccc(Cl)cc1	–	inactive: 14.6%
O=C(COC(=O)Cc1ccc(F)cc1)Nc1ccc(Cl)cn1	–	inactive: -1.33%
CC1Cc2ccccc2N1S(=O)(=O)c1ccc2c(c1)n(C)c(=O)c(=O)n2C (stereo not given)	inconclusive [inhibitor, single point]	–
CNc1cncc(-c2ccc(OC)c(OC)c2)n1	–	inactive: -56.5%
COc1cc2c(cc1OC)CN(c1ccc(C(N)=O)cc1[N+](=O)[O-])CC2	inconclusive [inhibitor, single point]	–

SMILES	Potency	activity change, negative = growth inhibition
Cc1ccc(CNC(=O)Nc2ccccc2)cc1	inconclusive [inhibitor, single point]	–
O=S(=O)(c1ccc(F)cc1)N1CCC(Oc2cccc(C(F)(F)F)c2)CC1	inconclusive [inhibitor, single point]	–
O=C(NNC(=O)c1sccc1-n1cccc1)Nc1ccc(F)cc1	–	inactive: -5.91%
CCOC(=O)c1c(NC(=O)CN2C(=O)NC3(CCC(C)CC3)C2=O)sc(C)c1CC (stereo not given)	–	inactive: -5.5%
CCOC(=O)C(=CNc1nc(-c2ccc3ccccc3c2)cs1)C(=O)OCC	inconclusive [inhibitor, single point]	–
COCCCNc1nc2ccccc2nc1NS(=O)(=O)c1ccc(C)cc1	inconclusive [inhibitor, single point]	–
COc1cccc(CNC(=O)C(=O)NCC(c2cccs2)S(=O)(=O)c2ccccc2)c1 (stereo not given)	inconclusive [inhibitor, single point]	–
Cc1csc(C(C)NC(=O)c2ccc(OC3CCN(CCc4ccccc4)CC3)cc2)n1 (stereo not given)	inconclusive [inhibitor, single point]	–
CCOc1cc(NC(=O)CCl)c(OCC)cc1NC(=O)CCl	active: 2.91 µM	–
COc1ccc(CCNC(=O)CCCn2c(=O)c3ccccc3n(Cc3ccccc3)c2=O)cc1OC	inconclusive [inhibitor, single point]	–
O=C(COC(=O)C1CCC1)NCc1ccccc1Cl	–	inactive: -26.3%
Cc1c(N2C(=O)/C(=C\c3cccc4ccccc34)SC2=S)c(=O)n(-c2ccccc2)n1C	inconclusive [inhibitor, partial curve]	–
Cc1ccc(CN2CC(N3CCCC3)CS2(=O)=O)cc1 (stereo not given)	–	inactive: -20.6%
COc1cccc(CN(C)Cc2cc(=O)oc3c(C)c(C)ccc23)c1	active: 13 µM	–
Cc1c2cnn(-c3ccccc3)c(=O)c2c(C)n1C(C)C(=O)Nc1ccccc1C(F)(F)F (stereo not given)	inconclusive [inhibitor, single point]	–
Cc1ccc(C(=O)Cn2nnc3ccccc32)cc1[N+](=O)[O-]	–	inactive: -0.238%
N#Cc1ccc(C(S(=O)(=O)Cc2ccccc2)S(=O)(=O)Cc2ccccc2)cc1	inconclusive [inhibitor, single point]	–
Cc1cccc(N2CCN(C(=O)c3ccc4c(c3)N(Cc3ccccc3)C(=O)c3ccccc3S4(=O)=O)CC2C)c1 (stereo not given)	inconclusive [inhibitor, single point]	–
CSc1nc2c(c(=O)[nH]1)C(c1cccc(Cl)c1Cl)CC(=O)N2 (stereo not given)	–	inactive: 5.31%
Cc1cccc(CCNC(=O)c2cc(S(=O)(=O)N3CCCCC3)c[nH]2)c1	active: 18.4 µM	–
C=C1CCN([C@@H](CC(C)C)C(=O)NCCCc2ccccc2)S(=O)(=O)c2ccccc21	inconclusive [inhibitor, single point]	–
Oc1ccc(/C=N/Nc2nc(-c3ccc(Cl)cc3)cc(C(F)(F)F)n2)cc1	inconclusive [inhibitor, single point]	–
